Screen size: about 94,000 compounds; about 4,000 (4.3%) were called active. The inconclusive results got no clear call from the source; some entries with a clear call stand among them for comparison. Calls follow the shape of the dose curve; as a rule, active = well fitted inhibition curve with a large enough effect; inconclusive = small, poorly fitted or top-dose-only effect; inactive = no such curve, though single readings can be large or run the other way. Potencies of inconclusive entries are doubtful fits and often do not repeat.
Assay: Cytotoxic Profiling in NIH 3T3 Cell Line of Diverse Libraries Using Quantitative High-Throughput Screening; also: nearly all actives have a fitted effect of over 55% in size
Conditions: NIH 3T3 viability, CellTiter-Glo ATP luminescence, 48-72 h; activity change, negative = cytotoxicity: at 96.7 µM (top of the series) unless noted; series mostly up to 96.7 µM
Summary of the method: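 First NIH 3T3 cells are plated at 400 cells/well; next compound is pinned in; then plates incubate 48 or 72 hr at 37 °C; finally CellTiter-Glo is added and luminescence read after 10 min.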
% is scaled to controls: 0 for no effect and ±100 for the full control effect; potency is read from the fitted curve at half-maximal effect; tags tell the direction and shape of the fitted curve.

| Compound | Potency | activity change, negative = cytotoxicity |
| --- | --- | --- |
| CCCOCCCNC(=O)c1c(C)noc1-c1ccc2c(c1)OCO2 | inactive |  |
| CN1c2cc(C(=O)Nc3ccc(OC(F)(F)F)cc3)ccc2C(=O)N2CCCC21 (stereo unspecified) | inactive |  |
| COc1ncccc1-c1nc(-c2c(C)noc2C)cc2cc(CN(C)C)oc12 | inconclusive: 35.5 µM [inhibitor, full curve] |  |
| O=C1COc2ccc(-c3ccc(F)cc3)nc2CN1Cc1ccccc1F | inconclusive: 63.1 µM [inhibitor, partial curve, poor fit] |  |
| O=C(CCc1ccc(-c2ccc(Cl)cc2)[nH]1)N[C@@H]1C[C@@H]2OCC[C@@H]21 | inconclusive: 79.4 µM [inhibitor, partial curve, poor fit] |  |
| Cc1ccc(CN2CCCN(S(C)(=O)=O)C(c3ccccc3)CC(=O)NCC2)o1 (stereo unspecified) | inconclusive: 44.7 µM [inhibitor, partial curve, poor fit] |  |
| Cc1ccc(-c2cc(N3CCCN(C(=O)c4ccc5c(c4)OCO5)CC3)n[nH]2)cc1C | inconclusive: 44.7 µM [inhibitor, partial curve, poor fit] |  |
| CCCCn1c(=O)c(C(=O)N2CCN([S+](=O)([O-])c3cccs3)CC2)nc2cccnc21 | inactive |  |
| OC[C@@H]1O[C@H](CN(Cc2cccc(Cl)c2)Cc2cccc(Cl)c2)C(N2CCOCC2)[C@@H]1O (stereo partly specified) | inactive |  |
| O=c1[nH]c(C2CCCN(Cc3ccccc3)C2)nn1-c1ccc(Cl)cc1 (stereo unspecified) | inconclusive: 31.6 µM [inhibitor, partial curve] |  |
| CCNC(=O)O[C@@H]1CO[C@H]2[C@@H]1OC[C@@H]2Nc1nccc(-c2cccs2)n1 | inactive |  |
| COc1ccc(-c2onc(C)c2C(=O)NCc2c(OC)cc(OC)cc2OC)cc1 | inconclusive: 39.8 µM [inhibitor, partial curve] |  |
| Cc1ccc(NC(=O)Cn2c(N3CCc4ccccc4C3)nc(C)cc2=O)c(C)c1 | inconclusive: 56.2 µM [inhibitor, partial curve, poor fit] |  |
| c1ccc(CNc2ncc(CN3CCC4(CCNCC4)CC3)cn2)cc1 | inconclusive: 50.1 µM [inhibitor, partial curve, poor fit] |  |
| O=C(Nc1cccc(C(F)(F)F)c1)O[C@@H]1CO[C@H]2[C@@H]1OC[C@@H]2n1cc(-c2ccccn2)nn1 | inconclusive: 56.2 µM [inhibitor, partial curve, poor fit] |  |
| CCCCCC(=O)N1CCC(=O)N(CCOC)C[C@H]2COc3ccc(C)cc3[C@H]21 | inconclusive: 50.1 µM [inhibitor, partial curve, poor fit] |  |
| CC(=O)N1CCC(n2nccc2NC(=O)c2ccc3c(c2)OCO3)CC1 | inactive |  |
| COc1cccc(CN2CCCCC23Cc2ccccc2NC3=O)c1 (stereo unspecified) | inconclusive: 89.1 µM [inhibitor, single point] |  |
| O=C1N(CC2CCOCC2)CCOC12CCN([S+](=O)([O-])c1cccs1)CC2 | inconclusive: 100 µM [inhibitor, partial curve, poor fit] |  |
| COCC(=O)N1CCC(Oc2ccc(C(=O)N(C)C)cn2)CC1 | inactive |  |
| Cc1ccc(-c2cc3c(=O)n(CCNC(=O)c4cc(F)ccc4F)ccn3n2)c(C)c1 | inactive |  |

| Compound | Potency | activity change, negative = cytotoxicity |
| --- | --- | --- |
| COC1=C(c2ccc(F)cc2)C(=O)N(Cc2ccccc2)C1 | inconclusive: 25.1 µM [inhibitor, full curve] |  |
| O=C(Nc1cccc(C(F)(F)F)c1)N[C@H]1[C@H](O)[C@@H](Oc2ccccc2)[C@@H]2OC[C@H]1O2 | active: 79.4 µM |  |
| CCc1nc2c(c(-c3ccc(Cl)cc3)n1)CCN(C(=O)c1ccc(C)cc1)CC2 | inconclusive: 50.1 µM [inhibitor, partial curve, poor fit] |  |
| Cc1ccc(S(=O)(=O)NC[C@H]2OC[C@@H](NCC3CC3)[C@@H]2O)cc1 | inactive |  |
| CNC(=O)c1cc(C2CC2)nc2onc(C3CCN([S+](=O)([O-])CCC(F)(F)F)C3)c12 (stereo unspecified) | inconclusive: 31.6 µM [inhibitor, partial curve, poor fit] |  |
| Cc1csc(CN(C)C(=O)CC(c2ccccc2)c2ccc3c(c2)OCO3)n1 (stereo unspecified) | inactive |  |
| Cc1ccc([S+](=O)([O-])N2CCN(Cc3ccccc3-c3cccnc3)CC2)cc1 | inconclusive: 31.6 µM [inhibitor, full curve, poor fit] |  |
| CCOc1ccccc1CN1CCN(c2ncnc3[nH]ccc23)CC1CCO (stereo unspecified) |  | inconclusive: -35% [inhibitor] |
| CNC(=O)c1cc(C2CC2)nc2onc(C3CCN(C(=O)c4cccnc4)C3)c12 (stereo unspecified) | inactive |  |
| CN1CCCCCCN(C(=O)CC2CCCC2)[C@H]2CCC[C@H]2C1=O | inactive |  |
| COc1cccc(S(=O)(=O)N2CCC(c3noc(-c4cnccn4)n3)C2)c1 (stereo unspecified) | inconclusive: 50.1 µM [inhibitor, partial curve, poor fit] |  |
| O=C(O)CCn1ncc2cc(OCC3CCN(c4ncc(F)cn4)CC3)ccc21 | inconclusive: 44.7 µM [inhibitor, full curve] |  |
| O=C(Cc1ccccc1Cl)N1CCN(c2cc(-c3cccs3)[nH]n2)CC1 | inconclusive: 35.5 µM [inhibitor, partial curve] |  |
| O=C1CCN(S(=O)(=O)c2ccccc2)CCCN(S(=O)(=O)c2ccccc2)CCN1 | inconclusive: 44.7 µM [inhibitor, partial curve, poor fit] |  |
| c1ccc(Nc2cc3c(cn2)NCCN(Cc2cccs2)C3)cc1 | inconclusive: 79.4 µM [inhibitor, partial curve] |  |
| O=C1[C@H]2CN(Cc3cccc(OC(F)(F)F)c3)C[C@H]2C(=O)N1Cc1ccc2c(c1)OCO2 | inconclusive: 50.1 µM [inhibitor, single point] |  |
| CCN1Cc2cc(OC)ccc2N(CC(O)COc2ccc(OC)cc2)CCC1=O (stereo unspecified) | inconclusive: 50.1 µM [inhibitor, partial curve, poor fit] |  |
| COCCc1noc([C@@H]2CC(F)(F)CN2C(=O)CCn2cccn2)n1 | inactive |  |
| COc1ccccc1N1CCN(C(=O)Cn2c(N3CCc4ccccc4C3)nc(C)cc2=O)CC1 | inconclusive: 50.1 µM [inhibitor, partial curve, poor fit] |  |
| C#CCNC(=O)c1cccc(-c2ccc(OC)nn2)c1 | inconclusive: 44.7 µM [inhibitor, partial curve, poor fit] |  |
| Cc1cc(=O)n(CC(=O)Nc2cccc(C(F)(F)F)c2)c(N2CCOCC2)n1 | inconclusive: 31.6 µM [inhibitor, partial curve] |  |

| Compound | Potency | activity change, negative = cytotoxicity |
| --- | --- | --- |
| COc1ccccc1Nc1ccnc(N2CCN(C(=O)c3ccccc3F)CC2)n1 | inconclusive: 12.6 µM [inhibitor, full curve, poor fit] |  |
| CC1(c2cccnc2)N(CC2CC2)C(=O)OC12CCN(C(=O)c1ccccc1)CC2 (stereo unspecified) | inconclusive: 89.1 µM [inhibitor, partial curve, poor fit] |  |
| CCc1nc(CN2CCCC(CO)(CC3CC3)C2)cs1 (stereo unspecified) | inconclusive: 79.4 µM [inhibitor, single point] |  |
| COc1cccc(NC(=O)O[C@@H]2CO[C@H]3[C@@H]2OC[C@@H]3Nc2nccc(-c3cccc(F)c3)n2)c1 | inconclusive: 50.1 µM [inhibitor, partial curve, poor fit] |  |
| COCCNC(=O)C1(C)CN(Cc2ccccc2)Cc2ccc(N3CCOCC3)nc21 (stereo unspecified) | inconclusive: 89.1 µM [inhibitor, partial curve] |  |
| COc1ccc(C2=NOC3(CCN([S+](=O)([O-])c4c(C)noc4C)C3)C2)cc1 (stereo unspecified) | inconclusive: 79.4 µM [inhibitor, partial curve, poor fit] |  |
| COc1ccc(-c2cc(N3CCN(C(=O)c4ccc(F)c(Cl)c4)CC3)n[nH]2)cc1 | inconclusive: 44.7 µM [inhibitor, partial curve, poor fit] |  |
| COc1ccc(-c2cc(-c3cccc(OC)c3OC)cn3cncc23)cc1 | inconclusive: 56.2 µM [inhibitor, partial curve, poor fit] |  |
| CN1CCC2(Cc3ccccc3CN(C(=O)c3ccc(Cl)cc3)C2)C1 (stereo unspecified) | inconclusive: 79.4 µM [inhibitor, single point] |  |
| CCOc1ccc(C(=O)NC2CCCN(c3cc(-c4ccc(F)cc4)[nH]n3)C2)cc1 (stereo unspecified) | inconclusive: 25.1 µM [inhibitor, full curve] |  |
| COc1cccc(N2CCN(C(=O)[C@H]3CCC[C@H]3NC(=O)c3ccc(OC)nc3)CC2)c1 | inactive |  |
| COc1ccc(C(=O)N2CCCC(N3C(=O)c4c(c(C)nn4-c4ccccc4)C3C)C2)cc1 (stereo unspecified) | active: 14.1 µM |  |
| O=C(Cc1ccccc1)Nc1ccc([C@@H](O)[C@H]2COCC(=O)N2Cc2ccccc2)cc1 | inactive |  |
| O=C(NCC(=O)N1CCN(Cc2ccccc2)CC1)c1cccc(-c2ccc(C(F)(F)F)cc2)c1 | inconclusive: 35.5 µM [inhibitor, partial curve, poor fit] |  |
| O=C(COc1ccccc1)N1CCC[C@H]1c1nc(-c2ccc(F)cc2)n[nH]1 | inconclusive: 70.8 µM [inhibitor, partial curve, poor fit] |  |
| Cc1noc([C@H]2CCN(Cc3scnc3C)C[C@H]2NC(=O)C2CC2)n1 | inconclusive: 79.4 µM [inhibitor, partial curve, poor fit] |  |
| CC(C)CCN1CCC(O)(c2csc(CN3CCN(c4ccccn4)CC3)n2)CC1 | inactive |  |
| COCC(=O)NCCNC(=O)c1ccc(-c2cccc(C(F)(F)F)c2)cc1 | inconclusive: 50.1 µM [inhibitor, partial curve, poor fit] |  |
| Cc1nn(-c2ccccc2)c2c1C(C(C)C)N(C1CCN(C(=O)C3CC3)C1)C2=O (stereo unspecified) | inconclusive: 44.7 µM [inhibitor, partial curve, poor fit] |  |
